Test results from the BET-seq Pho4 binding data (Le et al. 2018).
The other results are listed elsewhere or left out. These are noisy estimates, calculated here from bound and input reads.

These sequences were tested against T1, Pho4 (S. cerevisiae) (UniProt P07270) (assay: relative binding free energy (BET-seq); higher = weaker binding). Conditions: reference: library average.
T1 sequence: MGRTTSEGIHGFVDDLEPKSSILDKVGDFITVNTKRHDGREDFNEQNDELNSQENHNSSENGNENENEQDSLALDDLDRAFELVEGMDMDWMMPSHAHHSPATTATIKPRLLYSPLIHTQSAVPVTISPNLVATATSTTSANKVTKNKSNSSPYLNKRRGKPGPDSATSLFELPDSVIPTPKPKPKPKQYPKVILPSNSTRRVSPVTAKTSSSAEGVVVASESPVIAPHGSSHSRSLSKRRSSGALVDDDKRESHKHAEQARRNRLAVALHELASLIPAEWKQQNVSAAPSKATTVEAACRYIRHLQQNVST

Row | Sequence | relative binding free energy [kcal/mol]
1 | CAGTTCACGTGTGTTG | 0.16
2 | GGGTCCACGTGGGGAC | -0.01
3 | CTGGTCACGTGATATA | 0.27
4 | AAAGTCACGTGTGATT | 0.17
5 | TAGGTCACGTGTAGTG | 0.14
6 | GGGGGCACGTGAATCA | 0.23
7 | GTTTTCACGTGGTCAT | 0.21
8 | GAGAGCACGTGTTGTT | -0.01
9 | TTAATCACGTGATTGA | 0.29
10 | ATTGCCACGTGGTGCG | -0.12
11 | GTTTGCACGTGAAGCT | 0.23
12 | GAATTCACGTGTAGTG | 0.18
13 | TGGCGCACGTGCGGGG | -0.07
14 | GGTTGCACGTGCAGTT | -0.01
15 | GTAAGCACGTGGGGCG | -0.17
16 | TTGCACACGTGGATTT | 0.18
17 | TATCGCACGTGTAAGT | 0.02
18 | TGAGGCACGTGGGAGA | -0.13
19 | GTGGTCACGTGAATGA | 0.39
20 | TGGACCACGTGTGGAG | -0.01
21 | GGGGCCACGTGGTCCG | -0.03

Row | Sequence | relative binding free energy [kcal/mol]
22 | GTGTCCACGTGGGAGG | 0
23 | TTATTCACGTGAGGCG | 0.38
24 | TTGTACACGTGGAATA | 0.22
25 | AGATGCACGTGCGGGT | -0.08
26 | GTTAACACGTGCTTAT | 0.13
27 | GCGTCCACGTGTTGTG | 0.01
28 | AGGGGCACGTGAATGA | 0.11
29 | TGGGTCACGTGGCCTA | 0.03
30 | ATAGGCACGTGGAATT | 0.04
31 | GTATGCACGTGAGGTA | 0.12
32 | TTTGTCACGTGTTGCA | 0.04
33 | TTTAGCACGTGACTTG | 0.07
34 | GGTTGCACGTGTTGAG | 0.08
35 | GATGTCACGTGTTAGG | 0.23
36 | AGATGCACGTGGTCAT | -0.14
37 | GGGAGCACGTGGATAG | -0.14
38 | CAGAGCACGTGGGGAT | -0.1
39 | CTGTTCACGTGGCTGA | 0.28
40 | GGGGACACGTGGCTTG | 0.06
41 | TATTGCACGTGAGTCG | 0.16
42 | TGGTTCACGTGCATCG | 0.29

Row | Sequence | relative binding free energy [kcal/mol]
43 | TGCTTCACGTGGGGAG | 0.15
44 | GTAGTCACGTGTACGT | 0.26
45 | TGGTCCACGTGTAGGA | 0.09
46 | TAATTCACGTGCAGTG | 0.18
47 | GGAAGCACGTGAGGTT | 0.2
48 | TGTACCACGTGGAGGG | -0.16
49 | AGGTGCACGTGAATTG | 0.31
50 | AGAATCACGTGGTGGA | 0.16
51 | GTGGGCACGTGAGAAT | 0.3
52 | TGCGTCACGTGCGCGG | -0.14
53 | AGTAACACGTGGCGTA | 0.01
54 | ATTTACACGTGGTGCA | 0
55 | TATGACACGTGAGGTT | 0.17
56 | GGGGACACGTGTTGAG | 0.17
57 | GGCTCCACGTGGGTGG | -0.11
58 | AATTGCACGTGTTTTG | -0.06
59 | CTGATCACGTGGTGAG | 0.04
60 | GGAGACACGTGTAGGA | 0.1
61 | GGGGTCACGTGAGGAA | 0.43
62 | GTATACACGTGGGGGA | -0.09
63 | ATGTGCACGTGGTGTG | -0.18
